Results taken from the supplement of paper PMC3334620.
In all, about 33,000 sequences were measured (“E-score (-0.5 to 0.5)”: median about -0.04, highest 2% from about 0.36 on). Some of the results follow.

Each sequence was assayed against T1, Hmlalpha2 (UniProt P0CY09) (assay: PBM E-score (8-mer binding enrichment) (E-score (-0.5 to 0.5)); higher = stronger / more preferred TF binding; most listed sequences are background and not binding sites). Details: protein concentration: 200 nM; construct: GST-full length.
T1 sequence: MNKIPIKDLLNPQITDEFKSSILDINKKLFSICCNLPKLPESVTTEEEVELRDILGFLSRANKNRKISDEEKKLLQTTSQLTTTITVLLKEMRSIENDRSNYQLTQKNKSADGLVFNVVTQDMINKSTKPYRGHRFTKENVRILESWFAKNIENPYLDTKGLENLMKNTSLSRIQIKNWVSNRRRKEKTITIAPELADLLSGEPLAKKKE
Description: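 Universal 'all 10-mer' protein binding microarrays (Agilent AMADID 015681) probed with GST-tagged S. cerevisiae TFs (full-length or DBD) made by in vitro transcription/translation (PURExpress), about 100-200 nM. Bound TF was detected with fluorescent anti-GST. Each ungapped 8-mer (which stands for itself and its reverse complement) is scored by the PBM enrichment score (E-score), a modified Wilcoxon-Mann-Whitney statistic from -0.5 to +0.5, computed with the Universal PBM Analysis Suite. Scale: above 0.35 generally sequence-specific binding.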

Sequence	PBM E-score
AATATTCG	0.019
AGGCCTCG	-0.279
GCAAACGC	0.0916
GACGTGCA	-0.00154
CCCTACCC	-0.269
TCTCAGAA	-0.0663
TGGGAAAA	-0.224
CAATGCGC	-0.0478
AATATTGA	0.14
AAGCATTA	0.057
CTACGGGC	-0.102
TCAAGTGA	-0.0789
ACTTCGCA	0.0202
ACACCGTA	0.00356
CCTCATCC	-0.317
CAGGTAGC	-0.0622
AGAACCTC	-0.0832
TAATTGTA	0.335
CTGGGGAA	-0.271
ATCATCAC	0.0892
CCGTAGCG	-0.275
ACTTTGTG	0.0729
GTTACATA	0.421
CGCCACGA	-0.133
ACCAAATA	0.191

Sequence	PBM E-score
ACGCGGGA	0.0935
GCCTGCAC	-0.181
CTCTCATA	-0.0955
TGGCCGAA	-0.0705
GTTCGGTA	0.0665
AACGGATG	0.114
CGTCTACA	0.232
CGATGCTA	-0.00469
CATGACAC	0.328
CAAGTCTG	-0.00344
CCAACATA	0.314
CAGGGTGA	-0.13
CGTGCGCA	-0.0512
CCCTAAGC	-0.183
AGTCGCTC	-0.119
CAGCATTC	-0.0591
ACTTCTGG	-0.135
ATCTGAAC	-0.115
TAACTTGA	0.122
GCCATCAA	-0.0178
CGTCTTCC	-0.218
CCTACGCA	0.205
AGCCTACT	-0.162
ATCGTCCC	-0.167
GACCGAGA	-0.16

Sequence	PBM E-score
CCCTCCAG	-0.384
AACCTCGC	-0.116
GTTGCCGA	-0.0601
AAGCGTCG	-0.0441
AGGCAGCA	-0.0408
CGTGCCAG	-0.205
AAGGTGAT	0.0377
CCGACGAC	-0.191
AATATAAT	0.198
CCTTAGAC	-0.0859
ACCACAAA	0.0536
CTCCATTA	-0.137
CTGCTGGA	-0.187
CCATGACA	0.0453
ATAAACTC	0.105
ACCTATTA	0.0842
ACAAGCCA	0.194
CAGTATCG	-0.0673
CCGCACAG	-0.125
ATTCATAA	0.134
CGGCAAGC	-0.0983
CCCTGGCG	-0.292
AGGCAATG	-0.0945
CTCGTGCC	-0.26
CTATATCC	-0.106

Sequence	PBM E-score
GACCTTAA	-0.155
AGGGTGAC	-0.182
ATATCCTC	-0.175
AGAGTACT	-0.00088
CGACATTC	0.0104
AGGGTGAG	-0.267
CAACTTGG	-0.0128
AACTGAAT	-0.0403
GCCTCCCC	-0.267
CTCGTCGA	0.0413
GAGGTACA	0.235
GCAGACGC	-0.14
AAGGGGTC	-0.0494
GTAATCAA	0.318
CTATTCGC	-0.117
AACTATCT	-0.124
CCCCCTGC	-0.346
AGTCCTGC	-0.0389
CTGAGCAC	-0.093
AGTTTAGA	-0.0687
AAACACGT	0.361
ACAGATCC	0.0671
ACAAGTCG	-0.0657
CCTATAAG	-0.26
AGGTGGAA	0.0522

Sequence	PBM E-score
AATCAATT	0.181
AGCTAGCG	-0.197
ATACGTCC	0.0703
AGGCACTA	-0.128
AGGATACC	-0.137
ACCGAAGA	0.0453
CAAGCAAC	-0.0333
CTCGGCAA	-0.17
AATTCTAG	0.0719
ATTGGCTA	0.00756
CTTTATCC	-0.117
GTAACGTA	0.311
GTGACCAA	-0.106
CTCTGGCC	-0.362
ATGATACG	0.164
AGAGTTGA	-0.0893
CATTTCTA	0.116
AGATTTCG	0.0148
ACCGGCCG	-0.168
TGTACCAA	0.262
GAACCCAC	-0.0128
GACGGGAA	-0.0894
GAAGTCCC	-0.353
TCACAGCA	0.0289
GAATTAGC	-0.0766

Sequence	PBM E-score
AACACACA	0.391
TGCGCAAA	-0.00936
AGAAGTAC	0.00966
AAAGTAAT	0.238
GAGATCAC	-0.0612
GCGGTACC	-0.216
GTCGTGAA	0.00154
TGCCAGCA	-0.0451
CAGACCAA	-0.136
ACCTCCGC	-0.301
CAAGGTTA	0.128
AATAATTG	-0.0941
CAAGCACA	-0.0304
CTTGTTCA	0.249
ATAACGAA	0.124
AAAGTATA	0.114
ACAGTGGG	-0.164
CCGTACGG	-0.131
AACGGCGG	-0.209
CAACAGGG	0.0131
AGCGACCG	-0.201
AGAATAAA	0.0755
ACAGAGTG	0.122
AGGGACAT	-0.0233
GACGGCTA	-0.146

Sequence	PBM E-score
GTGCCTAA	0.0283
AATGATAT	0.0696
TAAGAATA	0.23
ATGCGTCG	0.0276
CATGCCCG	0.0552
GCAAAATA	0.106
GCAATAGC	0.0141
GGTCGACC	-0.0813
CTTCTTCA	-0.0104
ATCAGTAA	0.223
CGCAATGA	0.0708
CATCATAA	0.0908
AACGGCCC	-0.296
CCGTGGTA	0.0442
CTAATGAC	-0.046
CCAGAAAA	0.0245
CAGTAAAA	0.134
ATCGTGAA	-0.136
ACGGTATC	-0.0605
CCGATAGA	-0.186
CCTTTAGA	-0.0999
CAACAACG	0.239
GAAGTCAC	-0.229
ATTGTGCA	0.0508
CTCTCAAG	-0.211

Sequence	PBM E-score
CTCCCCCC	-0.418
TATTTACA	0.463
ATCGACTG	-0.247
AGCTCTTC	-0.21
CCTTGTAG	0.195
ATTCGGAG	0.00943
GGGCCCGA	-0.109
CATAATGA	0.0808
CGATGGTC	-0.175
CAGCAACA	0.234
ATCAATCG	0.0955
CCGGGCAC	-0.209
AGGCACCC	-0.134
AAGGCAGC	-0.148
ACATATTG	0.142
CACCCGGG	-0.278
CCAGAAAG	0.0306
AGGTGATA	-0.161
AGCTTAGA	-0.0544
CGTCAACA	0.297
CAAGAGTG	-0.0803
AGCTTACT	0.0336
TACGAAGA	0.0849
CATATGCA	0.1
CCTGCTTC	-0.214

Sequence	PBM E-score
GTGCAAAC	0.157
GGAAGGCC	-0.3
ACCCAAAG	-0.129
GTGTAGCA	0.157
CGGGAGCC	-0.33
CCTGTCCG	-0.0633
ATTCGTTG	0.0986
GATGGGAC	-0.282
GATGTAAC	0.215
ATGGTCTG	-0.0122
CATTCGAA	0.0371
GCTTAATA	-0.0703
ATGCCGTC	-0.00421
TCACTCAA	-0.0849
AAACGGGC	-0.0907
GCTTACCC	-0.233
AAGTATGC	0.0617
ATATTTCG	0.178
CAACTCCG	-0.171
AGCTAAGC	-0.142
CTCTTGCC	-0.055
AACGTAGA	0.258
ATCCGCAA	0.00285
AAAGCTCC	-0.153
AACACTCC	0.102

Sequence	PBM E-score
CTCCGACC	-0.354
ACCCGCTG	-0.0671
CCCCGGCG	-0.285
AACGGGTG	0.0789
GAATGAAA	-0.0312
CTTATAAG	-0.279
CGGTGTCA	-0.0723
ACTAGATG	0.0374
CCTGCCAC	-0.232
TCCGACAA	0.0659
TCAAAACA	0.308
CTTTTCGC	0.111
ATGCTCTA	-0.011
AATTTGTC	0.0589
CGGGTGAG	-0.247
TATAAGAA	0.0871
CGAGAACA	0.0369
GATATGCC	-0.287
CCGCACCA	-0.158
GGAAGCCA	-0.349
CCGTGGTC	-0.243
CAGATAGA	-0.0232
CCGAGCAA	-0.158
CGTAGTGC	-0.15
CCGAAACG	-0.082

Sequence	PBM E-score
CCAAGAGC	-0.225
ATAGGCTC	-0.186
CCGGGAGA	-0.167
CCCCAGTA	-0.182
CAATTTAC	0.286
GTCTTAAC	0.338
AGTGATCC	-0.0197
CGAAGAAA	-0.0904
TAAACTAA	0.246
GCCCACGC	-0.193
ACGGGTGA	-0.0736
CGTCTTCA	-0.0198
CATAATTC	0.0206
AAATGTAC	0.236
ACGAGTCA	-0.0236
ACACTATC	-0.0132
GACGACTA	-0.161
TCACACCA	-0.0124
CAGAATGC	-0.193
CCTCTCCA	-0.196
AGCCGGTC	-0.192
GATCCACA	0.0446
TGCCGGAA	0.0244
AAATTCCG	-0.0172
GCTGTTTA	0.173

Sequence	PBM E-score
GCCCATTA	0.0322
ATCTCGGC	-0.264
GACAAACC	-0.0548
CAAAAAAC	0.217
ACAATAAG	0.112
CCAGAGAA	-0.174
GCAACTGC	0.0943
ACTTGGGG	-0.282
AATGCCCA	0.0243
CGTTCCAG	-0.188
TACAGAGA	0.0691
GGGAAGCA	-0.183
ACACTGGC	0.115
CGCCAGCC	-0.237
CGGCGGAC	-0.22
ACGCCCCA	-0.0187
CTTCTTGC	-0.106
GTGCTTCA	0.0527
CGCGGCCG	-0.167
CCTTCTAC	0.136
AAGACAAT	0.0291
AATGTACG	0.108
AGTATAGA	0.00337
ACAGTTCC	-0.15
ACTACTAC	0.147

Sequence	PBM E-score
ATCGTCTC	-0.193
AGCTCGTA	0.0514
TGCATGCA	0.229
CTTGTACC	0.0814
GCTTTCCC	-0.264
TACAGCGA	0.00752
CGGGTGTA	0.174
ATTCAATG	0.0714
AAATGGCT	-0.121
AAGGTTAC	-0.0396
GCCCGGCA	-0.308
ATGGGAGG	-0.294
CTCAACGA	0.072
ATGACGCA	0.155
CGTGGCAC	0.0886
GAATCCTC	-0.386
CCCAGCTC	-0.345
CAGAGTCC	-0.111
CCCTAGCC	-0.371
ACGTACAA	0.273
CTTTAGGC	-0.167
AAGGTCGG	-0.193
AGCTTCTA	-0.132
AATAAGTG	-0.00657
CCCACTAA	-0.111

Sequence	PBM E-score
ACACATCT	0.288
ACGGGTAC	-0.0533
CTATTACC	-0.0498
AAGTAGAG	0.018
GGGCTGAC	-0.0889
TAAAATGA	0.155
CCAGTGGC	-0.197
ACCGACTC	-0.223
CGTTCGAC	-0.0737
TACCAGAA	-0.0654
AGAAATGA	0.158
ATGACCCC	-0.209
CGAACATA	0.231
CTATGTGA	0.172
AGGTTAGC	-0.132
AGAACACA	0.268
CAGTCAAG	-0.0797
TAGACCAA	-0.0507
GCACCTAC	-0.221
